# Reference: PubChem BioAssay AID686978 (National Center for Advancing Translational Sciences (NCATS), 2013)
# The whole screen tested about 420,000 compounds, of which about 64,000 (15%) were called active. Inconclusive means that the source gave no clear call. Such entries were picked first, then a sample of the others. Calls come from the whole dose curve; as a rule, active = well fitted inhibition curve with a large enough effect; inconclusive = small, poorly fitted or top-dose-only effect; inactive = flat fitted curve, though single readings scatter. No potency is given beside an inconclusive call; the fits are too rough.
# Experiment: qHTS for Inhibitors of human tyrosyl-DNA phosphodiesterase 1 (TDP1): qHTS in cells in absence of CPT; note: nearly all actives have a fitted effect of over 55% in size
# Details: DT40 Tdp1-/- hTDP1 cells, no CPT, ATP luminescence, 48 h; activity change, negative = growth inhibition: at 46.2 µM (top of the series) unless noted
# Outline: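 Growth of hTDP1-complemented DT40 Tdp1-knockout cells is measured by ATP luminescence after at least 48 hr compound exposure at 37 °C, with DMSO substituting for the 20 nM CPT used in the parallel screen.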
# % is set by controls: 0 for no effect and ±100 for the full control effect; potency is the fitted concentration of half-maximal effect; tags give direction and shape of the fitted curve.
Compound,Potency,"activity change, negative = growth inhibition"
COc1ccc2c(c1)OC(C)CN(CCNC(=O)c1cc3cc(F)ccc3[nH]1)C2 (centres undefined),"inconclusive [inhibitor, partial curve]",–
COc1ccc(N(CC(=O)NCCSc2ccccc2)S(=O)(=O)c2ccccc2)c(OC)c1,active: 13 µM,–
COc1ccc(/C(O)=C2/C(=O)C(=O)N(c3ccccn3)C2c2ccc(C(C)C)cc2)cc1 (centres undefined),"inconclusive [inhibitor, single point]",–
Cc1ccc2nc(-c3ccccc3)cc(C(=O)N3CCN(c4ccccc4O)CC3)c2c1,"inconclusive [inhibitor, single point]",–
O=C(c1cc(COc2cccc(C(F)(F)F)c2)on1)N1C[C@H]2CC[C@H]1C2,"inconclusive [inhibitor, single point]",–
O=C(CSc1nnc(-c2ccc(Cl)s2)o1)N1CCCc2ccccc21,active: 16.4 µM,–
Cc1ccc(NC(=O)COC(=O)Cc2c[nH]c3ccccc23)cc1C,"inconclusive [inhibitor, single point]",–
COc1cc(C(=O)N/N=C/c2ccc(OC(=O)c3ccccc3Cl)c(OC)c2)ccc1O,"inconclusive [inhibitor, single point]",–
C/C=C/c1ccc(OCCCCN2CCC(C)CC2)c(OC)c1,"inconclusive [inhibitor, single point]",–
COc1ccc(CCNC(=O)CSc2nnc(Cc3cccn3C)n2C)cc1OC,–,inactive: -8.54%
CCOc1ccc(C(=O)c2cn(CC(=O)Nc3ccc(F)c(F)c3)c3cc4c(cc3c2=O)OCCO4)cc1,active: 25.9 µM,–
Cc1ccc2c(c1)S(=O)(=O)c1ccc3ccccc3c1N2,–,inactive: 1.67%
COc1cccc(N2CCN(Cc3nc4ccccc4c(=O)[nH]3)CC2)c1,"inconclusive [inhibitor, single point]",–
CCN(C(=O)COc1cccc2cccnc12)C1CCS(=O)(=O)C1 (centres undefined),"inconclusive [inhibitor, single point]",–
CC(=O)C[C@@H]1OC[C@H](C)N1S(=O)(=O)c1ccc(C)cc1,–,inactive: 1.6%
CC(C)Nc1nc(NC(C)C)nc(SCC(N)=O)n1,–,inactive: -12.3%
COc1cccc(NC(=O)CCc2nc(-c3cccs3)no2)c1,inactive,–
CC(C)(C)c1cc(-c2csc(Nc3ccccc3)[n+]2Cc2ccc(C(=O)O)cc2)cc(C(C)(C)C)c1O,"inconclusive [inhibitor, single point]",–
O=C1CC(N2CCN(Cc3ccc4c(c3)OCO4)CC2)C(=O)N1c1cccc2ccccc12 (centres undefined),–,inactive: -4.63%
CCOC(=O)C1CCN(c2c(NC3CCCCCCC3)c(=O)c2=O)CC1,"inconclusive [inhibitor, single point]",–
C[C@]12C=CC(=O)C=C1CCC1C2C(=O)C[C@]2(C)C1CC[C@]2(O)C(=O)CO (some centres undefined),–,inactive: -18.9%
O=S(=O)(c1ccccc1)N1CCN(c2nc(-c3cccnc3)nc3ccccc23)CC1,active: 20.6 µM,–

Compound,Potency,"activity change, negative = growth inhibition"
CCOC(=O)c1c(C)n(C)c2cc(Br)c(O)c(O)c12,"inconclusive [inhibitor, single point]",–
N#CCC1c2ccccc2CCN1C(=O)Nc1ccc(Cl)cc1 (centres undefined),–,inactive: -15.8%
Cc1cc(C)cc(C(=O)NCC(=O)N2CCN(C(c3ccccc3)c3ccccc3)CC2)c1,active: 18.4 µM,–
COc1ccc(CC(=O)O/N=C(\N)c2cccc([N+](=O)[O-])c2)cc1,"inconclusive [inhibitor, single point]",–
Cc1occc1C(=O)Nc1ccc(S(=O)(=O)N2CCN(C)CC2)cc1,–,inconclusive: -30.3% [inhibitor]
COc1ccc(CN(C)Cc2c(O)ccc3cc(Br)ccc23)cc1OC,"inconclusive [inhibitor, partial curve, poor fit]",–
NC(=O)C1CCN(CC(=O)Nc2cccc(C(=O)Nc3cccc(C(F)(F)F)c3)c2)CC1,"inconclusive [inhibitor, single point]",–
COC(=O)CNC(=O)C1CCCN1C(=O)OC(C)(C)C (centres undefined),–,inactive: -9.81%
Cc1c(-c2ccccc2)cnc2c(C)cccc12,"inconclusive [inhibitor, partial curve, poor fit]",–
CC1(C)C2([N+](=O)[O-])CN3CC1([N+](=O)[O-])CN(C2)C3c1ccccc1 (centres undefined),–,inactive: -4.36%
O=C(CCc1nnc(-c2ccsc2)o1)N1CCc2c(Cl)cccc2C1,"inconclusive [inhibitor, partial curve, poor fit]",–
COc1cccc(-c2ncc3ccccc3c2COC(=O)c2ccc(C(F)(F)F)cc2)c1,"inconclusive [inhibitor, single point]",–
C=CCC(NC(=O)N(C)C)(C(=O)OC)C(C)O (centres undefined),–,inactive: 4.46%
COc1ccc(C(CC(=O)N2CCCC2)c2c(OC)cc(OC)c3c(-c4ccccc4)cc(=O)oc23)cc1 (centres undefined),active: 16.4 µM,–
COC(=O)Nc1ncc(CN2C(=O)c3ccccc3C2=O)s1,–,inactive: -5.56%
COc1ccc(C(=O)NCc2ccc(-c3nc4ccccc4s3)cc2)cc1OC,–,inconclusive: -32.4% [inhibitor]
COc1cccc(CNC(=O)C(Cc2ccccc2)NS(=O)(=O)c2ccc3c(c2)oc(=O)n3C)c1 (centres undefined),"inconclusive [inhibitor, single point]",–
Cc1cccc(NC(=O)c2ccc3nc(CCc4ccccc4)oc3c2)c1C,"inconclusive [inhibitor, single point]",–
Cc1cc(C(c2cc(C)c(N)c(C)c2)c2ccco2)cc(C)c1N,"inconclusive [inhibitor, single point]",–
COc1ccc(/C(N)=N/OC(=O)C2CCC(=O)N2S(=O)(=O)c2ccc(C)cc2)cc1OC (centres undefined),"inconclusive [inhibitor, single point]",–
O=C(c1cc(-c2ccccn2)nc2ccc(Br)cc12)N1CCN(S(=O)(=O)c2ccccc2)CC1,"inconclusive [inhibitor, single point]",–
O=C(NCC1COc2ccccc2O1)c1cccc(S(=O)(=O)N2CCN(c3ccccc3)CC2)c1 (centres undefined),active: 20.6 µM,–
